# The full ranking holds about 33,000 sequences; the median of “E-score (dimensionless, -0.5 to 0.5)” is about -0.058, and the highest 2% start at about 0.35. Some of the results follow.
# Tested on: MvaT
# Experiment: PBM 8-mer E-score (mean of HK and ME arrays) (E-score (dimensionless, -0.5 to 0.5)); higher = stronger relative binding preference; most listed sequences are background and not binding sites
# Method in brief: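 Reported values are rank-based E-scores, taken as the mean of two universal arrays and parsed with a custom script. Each 8-mer score falls between -0.5 and 0.5. The arrays, ME and HK, were double-stranded 60-mers with a constant 25-mer primer region and a variable 35-mer region covering all 8-mers. They were probed, by an earlier protocol, with full-length P. aeruginosa MvaT carrying an N-terminal glutathione S-transferase fusion.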
row,Sequence,PBM 8-mer E-score
1,ATGGGCTG,-0.231
2,GTAACGAC,0.0549
3,CATTCTTC,0.104
4,TACCAAAA,0.207
5,CAGCCCAA,-0.201
6,CCCACTGC,-0.243
7,GGCCACGA,-0.266
8,TAGCTCCA,-0.00477
9,AGTGGCGG,-0.0347
10,CGAACCGA,-0.153
11,TCGTGCCA,-0.178
12,TCGGCCAA,-0.19
13,CGAATGGC,-0.241
14,CAGGGACG,-0.279
15,CCACTTTC,-0.0573
16,ACAGGCCC,-0.155
17,AACTAAAT,0.351
18,AATCACCA,0.0931
19,CCTCTTCA,-0.223
20,ATAAGTAA,0.371
21,GTGAGCCA,-0.186
22,ATAAATAA,0.442
23,CAATGGAA,-0.0495
24,AACTTGCA,0.263
25,GCCCCTGA,-0.355

row,Sequence,PBM 8-mer E-score
1,ACGGTTTG,-0.104
2,CGGGATCC,-0.211
3,CCGTGAAA,-0.0413
4,CTTTACTA,0.0718
5,ACATCATA,0.146
6,CCATCCCC,-0.185
7,CACATGCG,-0.283
8,AATTAGCC,0.191
9,AGATTATG,0.189
10,AGCGTGGG,-0.186
11,CCGGTCCC,-0.0879
12,ATTACGAG,0.228
13,CTCTTAGA,0.0454
14,TCGTCACA,-0.0375
15,AGAAAAAC,0.114
16,AGCTCGCA,-0.132
17,GACCACTC,-0.163
18,TACGATAA,0.218
19,CAAATTTC,0.115
20,AACTCGCT,-0.0666
21,ACATACCG,0.0229
22,AGCATCAT,0.0041
23,GCCTGATA,0.0065
24,AAAGGAAG,-0.0816
25,CTCGCGAA,-0.087

row,Sequence,PBM 8-mer E-score
1,CTAGGCAC,-0.257
2,GTACCTCA,-0.187
3,GACACGCC,-0.119
4,AGCTGGTA,-0.107
5,CTCAGTCA,-0.237
6,GGAAATTA,0.285
7,CTGACTGC,-0.193
8,GTGGAGGA,-0.305
9,ACTAAGGA,0.0541
10,TACTCAGA,0.0532
11,ATTAGAGC,0.166
12,ACATCGAT,0.231
13,CCGTCAAA,-0.171
14,GATTTGAA,0.2
15,TCGCCCGA,-0.0549
16,CGGATAGC,-0.222
17,GAGCCAGA,-0.133
18,GAGAGCCC,-0.185
19,ACAGTCTG,-0.12
20,CGCGACCG,-0.19
21,GAGAGCGC,-0.235
22,AAGCTTTC,0.0444
23,CAAGCCGG,-0.23
24,TCGACTCA,-0.0474
25,ACGCCTAT,-0.173

row,Sequence,PBM 8-mer E-score
1,AAGTTTCT,0.21
2,ATCCGTCA,-0.133
3,TCAGCAAA,0.0956
4,ATTTCCTA,0.0193
5,ACGGGCGG,-0.187
6,AAAAGTAC,0.105
7,GGTTAGTA,-0.14
8,ATATACAG,0.379
9,ATGTTACA,0.334
10,CCAGATTA,0.0657
11,ACTAGTTC,0.167
12,ACCCCTTG,-0.192
13,GCGAACGC,-0.147
14,CAGCTTGC,-0.315
15,CACTGTTC,0.00494
16,TAAGTTCA,0.353
17,CTAGCAGC,-0.286
18,ATCTGCAG,0.0275
19,GCAGCTAA,0.0363
20,GAAATTAC,0.247
21,CGCAGTAA,-0.0812
22,GCATCGTA,-0.06
23,AGTTCGGG,-0.0593
24,GCAGTCTA,-0.147
25,GTTTTGGA,0.146

row,Sequence,PBM 8-mer E-score
1,CTCGACAA,-0.0376
2,CAATATGG,0.156
3,AACCTACG,-0.168
4,ATCGATAA,0.259
5,ACCCGTGG,-0.197
6,CGGGCAAA,0.0147
7,AGGCTTTA,0.0572
8,CAGAGCCA,-0.205
9,ATCCTTAC,0.0415
10,ATAGATGA,0.0531
11,ACACGGAA,0.0124
12,GGTTTCCA,-0.135
13,CGTTAGCA,-0.0988
14,AGCATCGG,-0.165
15,AGTTAGTA,0.322
16,ACTGCTAC,-0.102
17,AGCCGGCT,-0.27
18,AGGATCTG,-0.298
19,CTTAGCCC,-0.146
20,GACGAAAA,0.116
21,CTTAGCAC,-0.246
22,GCTATAAA,0.217
23,GTTGTTAA,0.257
24,GCTAAGAA,0.099
25,ACCATACA,0.0797

row,Sequence,PBM 8-mer E-score
1,CGTAAGAG,-0.0608
2,CGTTCGTA,-0.165
3,ACGTACCG,-0.183
4,GAATGATC,-0.135
5,AGGTACCT,-0.172
6,CCTGAATC,-0.0962
7,TATGGAGA,0.004
8,CACTACTA,0.226
9,ATTCGCAA,0.133
10,AAAGGCAA,0.0705
11,CACCCATG,-0.206
12,GTATCCCA,0.0146
13,GGGGTCTA,-0.333
14,GACCTTGC,-0.173
15,GCATAGCA,-0.106
16,AAGTTTAT,0.358
17,AGGTGCAC,-0.0462
18,AATATAGA,0.365
19,AAACTCCT,0.0562
20,ACAGAAAA,0.0557
21,AGATCATA,0.177
22,CCGCAAGA,-0.078
23,CCTCATCA,-0.156
24,TCGATTCA,0.0417
25,CCCACGCC,-0.22

row,Sequence,PBM 8-mer E-score
1,ATACGAAT,0.127
2,GTTACAGA,0.153
3,ATCTCTCG,-0.0594
4,GCAGTTAC,0.171
5,CATTATAG,0.277
6,GACGCCTC,-0.249
7,GGGAATTA,0.129
8,CACTCTAA,0.0768
9,ACCGTTAC,0.0297
10,AAGAAGGC,-0.299
11,CGTAGCTC,-0.151
12,CATTTAAG,0.287
13,GTAAAGAA,0.0617
14,CGAATGAC,0.0466
15,CCCAATTC,0.00595
16,AGTAAGGA,0.0652
17,TAACCCAA,0.16
18,CGTCGAGC,-0.191
19,TCATGGCA,-0.0856
20,GGCAGGGA,-0.242
21,ACGCGACC,-0.031
22,CAATCGCG,-0.0474
23,AAGGTAAG,-0.105
24,TATGCGCA,0.189
25,GTGACTTA,0.0291

row,Sequence,PBM 8-mer E-score
1,ACGCCTGA,-0.109
2,CATTTGGC,-0.145
3,CGCAAGCC,-0.179
4,ACTTTCCT,0.0961
5,GACGGCAA,-0.16
6,ATGACTTC,-0.0129
7,GACCGAAC,-0.217
8,ATGAGACA,0.0905
9,GCATCGCC,-0.38
10,AGTGCGTG,0.0803
11,ACACGTCG,-0.116
12,GAGTGGCC,-0.259
13,AATGGTTC,-0.0396
14,GGCAAAGA,0.02
15,CCTGCGTA,-0.182
16,AACTGTTA,0.301
17,AAGGTTAT,0.115
18,AACCGAGT,-0.0818
19,CAAAGCTG,-0.196
20,ATATGAGC,0.161
21,GGCATACC,-0.156
22,CAATAAGC,0.171
23,AGTAGTAC,0.144
24,GAAAAGAC,-0.00794
25,CGCCTTAC,-0.234

row,Sequence,PBM 8-mer E-score
1,TCTGCTCA,-0.118
2,CAAAAGGG,-0.119
3,GAAAAAAA,0.0648
4,CCGGTTTC,-0.266
5,AGGCCCTG,-0.126
6,CTAAGACA,-0.123
7,GACAAATC,-0.0221
8,GACATTCA,-0.0871
9,AGCAGTCC,-0.184
10,CGCGCTGA,-0.13
11,ATAGATAC,0.1
12,GTACACGA,-0.122
13,CCGTATGA,-0.119
14,TTACTGAA,0.182
15,AAGCTCTA,-0.217
16,ATCACGGG,-0.203
17,CGACGGCA,-0.163
18,GGTAATTA,0.286
19,GACATGAC,0.0334
20,CCGAATTC,0.0781
21,GGAAGTAA,0.206
22,CGCTGGAA,-0.092
23,GCGTGACA,-0.0952
24,CTGCTATA,0.131
25,CCTAAGCA,-0.246

row,Sequence,PBM 8-mer E-score
1,ACCATGTC,-0.156
2,CGGTTTTA,0.132
3,CATTCCCC,-0.183
4,CAATCGAG,-0.215
5,GAAATGCA,-0.0166
6,GCGCTGCC,-0.4
7,GCCTCCCA,-0.29
8,GAACGACA,-0.0982
9,GGCAGGAC,-0.285
10,CACTGTAC,0.0194
11,CATAATGC,0.111
12,ACGTTGCT,0.0234
13,GCACCGAC,-0.201
14,GATTTACA,0.072
15,AGTTTTTG,0.158
16,GGATTAGA,0.0862
17,AGATAACG,0.0641
18,CACTACGA,-0.0417
19,GAAGCTGA,-0.135
20,CCACCGGG,-0.309
21,CATTTAAA,0.386
22,CCGGTTTA,-0.0258
23,AGGCCAGA,-0.201
24,GTCATAAC,0.0325
25,CATCACTA,-0.0133

row,Sequence,PBM 8-mer E-score
1,AAAAGTGC,0.142
2,GAATCATA,0.151
3,CTAGACGC,-0.196
4,CTAAAGAG,0.0099
5,AACCCGCG,-0.188
6,AACATGTG,0.0114
7,CGGTGACA,-0.0754
8,CATAGCAC,-0.0427
9,CCCCGACG,-0.194
10,CTAAACAG,0.0489
11,CCGTACCA,-0.208
12,ATTACTTA,0.334
13,CTTATTTC,0.291
14,CGTTACCA,0.0947
15,CGCAGACC,-0.137
16,ATCTTCTG,0.00225
17,CCCGACGC,-0.329
18,AGATAGCC,-0.229
19,CCGATAGC,-0.177
20,AGGAGTAT,0.0184
21,AGTAACGG,0.0915
22,GGGATCAC,-0.277
23,CGGCCCTC,-0.304
24,AACATGGA,0.118
25,GGGATAGA,-0.169

row,Sequence,PBM 8-mer E-score
1,GATGTGCC,-0.204
2,GACCTGGC,-0.217
3,CAGAATTC,0.0762
4,AACCCACA,0.171
5,CCCGATCA,-0.205
6,CACAGTGG,-0.169
7,GGACCGAC,-0.126
8,AAGAAGAC,-0.0906
9,GCACTCGC,-0.134
10,GCAGCGGA,-0.124
11,AAGTGACA,0.0308
12,CACCGCAA,-0.173
13,GCTCCTCC,-0.391
14,AGACAAAA,0.00125
15,ATGCTGGA,-0.153
16,GAGCTTCC,-0.17
17,GGTGTTAC,0.046
18,AACACGAC,-0.000712
19,AATCTCAA,0.141
20,CCACCTCA,-0.174
21,ACTTAGCA,-0.0524
22,CACAGGAA,0.0166
23,ACAATCGG,-0.0629
24,GCATTGAC,-0.131
25,GGGTGTGA,-0.197

row,Sequence,PBM 8-mer E-score
1,CCTCCGCA,-0.268
2,CATCCATA,0.0526
3,GCTAGCAC,-0.264
4,TACCCATA,0.161
5,CGTGTTGC,-0.1
6,CGATCGCG,-0.0502
7,ACGGACAA,0.0196
8,AGCAAACT,0.139
9,AGTAACTG,0.251
10,AAAATAGC,0.0928
11,CAGCCTCA,-0.204
12,ACTTTTTC,0.0911
13,CCACGTCC,-0.206
14,ACGACTTC,-0.178
15,GGCGTACA,0.0736
16,ATATTCAC,0.282
17,CTGGGCAA,-0.204
18,CAATTTAA,0.366
19,ACTGGTAG,-0.15
20,CACTTATC,0.14
21,AAGACGCG,-0.0462
22,ACATCCGA,-0.00247
23,TAATGACA,0.169
24,ACACAATG,0.0203
25,CAAGGGGC,-0.378

row,Sequence,PBM 8-mer E-score
1,GAGGCACC,-0.229
2,ACCTGTTG,-0.18
3,CGGTTCTC,-0.0601
4,CCGCTACG,-0.312
5,ACAGCATG,-0.0768
6,AATAGCCT,-0.0939
7,CCAGTGTA,-0.0857
8,GCTTTAGA,0.0158
9,AGGATATA,0.262
10,GTCGGACA,-0.0745
11,TGGAGACA,-0.178
12,CAAGCAAA,0.0561
13,CCATCTGA,-0.117
14,TTCAAAAA,0.225
15,TAAGCTTA,0.0997
16,CACACATC,-0.00938
17,ACTGCATG,-0.0123
18,TCAGTTAA,0.189
19,ACAGCACT,-0.0738
